The full ranking holds about 33,000 sequences; the median of “E-score (-0.5 to 0.5)” is about -0.041, and the highest 2% start at about 0.37. Some of the results follow.
molecular target: T1, Ecm22 (UniProt Q05958); test: PBM E-score (8-mer binding enrichment) (E-score (-0.5 to 0.5)); higher = stronger / more preferred TF binding; most listed sequences are background and not binding sites; settings: protein concentration: 200 nM; construct: GST-full length
T1 sequence: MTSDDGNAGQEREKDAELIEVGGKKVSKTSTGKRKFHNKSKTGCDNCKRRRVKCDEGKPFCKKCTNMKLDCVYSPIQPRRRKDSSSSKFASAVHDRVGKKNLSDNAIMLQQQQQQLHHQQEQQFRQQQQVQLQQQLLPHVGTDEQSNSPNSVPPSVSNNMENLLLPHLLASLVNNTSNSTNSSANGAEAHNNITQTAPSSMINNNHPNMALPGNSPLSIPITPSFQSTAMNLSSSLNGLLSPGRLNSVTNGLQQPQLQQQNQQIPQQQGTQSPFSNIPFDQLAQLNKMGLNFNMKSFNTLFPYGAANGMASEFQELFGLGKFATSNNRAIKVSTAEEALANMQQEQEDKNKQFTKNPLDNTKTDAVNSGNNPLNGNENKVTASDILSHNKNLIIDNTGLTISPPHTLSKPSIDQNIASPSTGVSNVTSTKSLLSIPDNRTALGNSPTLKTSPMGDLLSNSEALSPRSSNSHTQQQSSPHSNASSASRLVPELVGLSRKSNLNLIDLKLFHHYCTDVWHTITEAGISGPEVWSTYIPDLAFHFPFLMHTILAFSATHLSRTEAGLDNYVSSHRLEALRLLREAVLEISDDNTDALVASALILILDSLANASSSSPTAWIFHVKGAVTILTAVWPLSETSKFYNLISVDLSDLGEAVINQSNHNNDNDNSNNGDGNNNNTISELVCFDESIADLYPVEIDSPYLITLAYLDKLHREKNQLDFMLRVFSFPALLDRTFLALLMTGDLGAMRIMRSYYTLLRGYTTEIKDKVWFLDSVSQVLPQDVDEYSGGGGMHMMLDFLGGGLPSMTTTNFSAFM
Method in brief: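 Using PURExpress in vitro transcription/translation, GST-tagged yeast transcription factors were made in full-length or DNA-binding-domain form. These were applied at about 100-200 nM to double-stranded universal all-10-mer Agilent arrays, and bound protein was detected with fluorescent anti-GST. Scans were normalised with masliner before the Universal PBM Analysis Suite assigned E-scores to ungapped eight-base words pooled with their reverse complements.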

Sequence	PBM E-score
ATCATGCA	-0.298
GTGTGTAA	-0.196
AGAACCAC	-0.149
ACGATCGT	0.43
GTGGGGAA	0.0882
GGCCTGTA	-0.291
CCTCTTGA	-0.188
CTGCGCAC	-0.196
AAGGCCAT	0.0113
GGGGGCGA	-0.0785
AGTCTCAC	-0.109
CATGAACG	0.246
CTGCGTAC	0.252
CTGGCACC	-0.282
AATCGATT	0.0191
CAGCCACA	-0.24
CCCAAGCC	-0.103
CAACGGTA	0.0958
ATAAGGAC	-0.131
ACACGTGC	-0.0804
ACGGGAGC	0.225
CACAGCAG	-0.0262
CCAGATGA	-0.112
TAGGTCCA	-0.00993

Sequence	PBM E-score
TATCTTAA	-0.118
ATTATCAC	0.025
AATACGTA	0.228
ATTAGCAA	0.00504
ACCGCCGC	0.207
AAAGGTTA	-0.0621
TATCGTAA	0.363
ACCGCGTC	0.103
AAAAGCAG	-0.159
GGTGATAC	-0.103
GCATGGCA	-0.00697
CACCGCAC	0.0408
GCGAAACC	0.0505
ACGGGTAA	0.192
CAGCTTGG	-0.186
GAGGCCCC	-0.232
AGGCCCAT	-0.148
CTAACCTC	-0.0491
GCGCCCAA	0.00566
TCTATAGA	-0.293
AAAGGAAC	0.207
CCGAGAGC	0.114
TAGAGTAA	0.0969
AGATCAAG	0.131

Sequence	PBM E-score
AAGGTTCG	0.0617
GTTGGCAA	0.106
TATGTGAA	-0.0244
GCCTAACC	-0.0825
CAAAGTCC	-0.0879
CCCCTTCG	-0.0136
CAGCGCCG	0.0283
GCACATAA	0.027
AACCTGCC	-0.223
CCAGGTAC	0.0984
CAGCAGAC	-0.0313
CGGAGAAA	0.244
CCGTGTCC	-0.0456
ACGTATCA	0.281
CCAGGTAA	0.0558
AACTAATA	0.098
GGGAATCA	-0.171
CAAAGCCG	0.0156
TAAAGGCA	-0.0439
ACAAAAGT	-0.0624
AAGGGACG	-0.12
CGAGTAGA	0.198
ACTTGATG	-0.139
ACAAAATC	-0.103

Sequence	PBM E-score
ACCTGCGT	0.0491
GGGTTGAA	-0.0994
ATCAGTCC	-0.316
CCTTAAGG	0.119
CGCATACG	0.385
CGCTAGGA	-0.206
AACCACAT	-0.121
GAAGTAGC	-0.106
GATGGGGA	-0.103
GGCCTTTA	-0.0923
GTGGCCAA	-0.227
CTGTCCGC	0.0898
TGATAGCA	-0.0351
AAATGATA	0.198
ATGTAAAT	-0.1
GACTTTCA	-0.269
GACAACCC	0.0885
ATACACGG	0.0678
AGCGGATG	0.0566
AGAGCTAC	-0.205
ATTCAGAA	-0.149
CGGCACTC	-0.174
